# Some of the results follow.
# Key:
# Assay in all cases: glycan array binding signal (z-score within array); higher = stronger binding
# Details in all cases: glycan notation: IUPAC condensed, linker removed
# [1] = molecular target: GlcNAc(b1-6)GalNAc
# In short: (§1)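 The binding signal is a Z-score computed within each array and averaged over linkers. Arrays of the same protein sequence at different concentrations or buffers were also averaged together. Data originate from 3228 arrays in the Consortium for Functional Glycomics database, kept only where the protein sequence was available.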
# [2] = molecular target: GlcNAc3Prop(b1-4)GlcNAc
# In short: as §1
# [3] = molecular target: Kdn(a2-3)Gal(b1-3)GlcNAc
# In short: as §1
# [4] = molecular target: Kdn(a2-3)Gal(b1-4)GlcNAc
# In short: as §1
# [5] = molecular target: Man(a1-2)Man(a1-2)Man(a1-3)Man
# In short: as §1
# [6] = molecular target: Man(a1-2)Man(a1-2)Man(a1-6)[Man(a1-3)]Man
# In short: as §1
# [7] = molecular target: Man(a1-2)Man(a1-3)Man
# In short: as §1
# [8] = molecular target: Man(a1-2)Man(a1-3)[Man(a1-2)Man(a1-6)]Man
# In short: as §1
# [9] = molecular target: Man(a1-2)Man(a1-3)[Man(a1-2)Man(a1-6)]Man(a1-6)[Man(a1-2)Man(a1-2)Man(a1-3)]Man
# In short: as §1
# [10] = molecular target: Man(a1-2)Man(a1-3)[Man(a1-2)Man(a1-6)]Man(a1-6)[Man(a1-2)Man(a1-2)Man(a1-3)]Man(b1-4)GlcNAc(b1-4)GlcNAc
# In short: as §1
# [11] = molecular target: Man(a1-2)Man(a1-3)[Man(a1-6)]Man(a1-6)[Man(a1-2)Man(a1-3)]Man(b1-4)GlcNAc(b1-4)GlcNAc
# In short: as §1
# [12] = molecular target: Man(a1-2)Man(a1-6)[Man(a1-3)]Man(a1-6)[Man(a1-2)Man(a1-2)Man(a1-3)]Man
# In short: as §1
# [13] = molecular target: Man(a1-2)Man(a1-6)[Man(a1-3)]Man(a1-6)[Man(a1-2)Man(a1-2)Man(a1-3)]Man(b1-4)GlcNAc(b1-4)GlcNAc
# In short: as §1
# [14] = molecular target: Man(a1-3)[Man(a1-6)]Man
# In short: as §1
# [15] = molecular target: Man(a1-3)[Man(a1-6)]Man(a1-6)[Man(a1-2)Man(a1-3)]Man(b1-4)GlcNAc(b1-4)GlcNAc
# In short: as §1
# [16] = molecular target: Man(a1-3)[Man(a1-6)]Man(a1-6)[Man(a1-3)]Man
# In short: as §1
# [17] = molecular target: Man(a1-3)[Man(a1-6)]Man(a1-6)[Man(a1-3)]Man(b1-4)GlcNAc(b1-4)GlcNAc
# In short: as §1
# [18] = molecular target: Man(a1-3)[Man(a1-6)]Man(b1-4)GlcNAc(b1-4)GlcNAc
# In short: as §1
# [19] = molecular target: Man(a1-6)Man
# In short: as §1
# [20] = molecular target: Man(b1-4)GlcNAc
# In short: as §1
# [21] = molecular target: Neu5Ac(a2-3)Gal
# In short: as §1
# [22] = molecular target: Neu5Ac(a2-3)Gal(b1-3)GalNAc
# In short: as §1
# [23] = molecular target: Neu5Ac(a2-3)Gal(b1-3)GalNAc(b1-3)Gal(a1-4)Gal(b1-4)Glc
# In short: as §1
# [24] = molecular target: Neu5Ac(a2-3)Gal(b1-3)GalNAc(b1-3)Gal(b1-4)GlcNAc
# In short: as §1
# [25] = molecular target: Neu5Ac(a2-3)Gal(b1-3)GalNAc(b1-4)[Neu5Ac(a2-3)]Gal(b1-4)Glc
# In short: as §1
# [26] = molecular target: Neu5Ac(a2-3)Gal(b1-3)GalNAc6S
# In short: as §1
# [27] = molecular target: Neu5Ac(a2-3)Gal(b1-3)GlcNAc
# In short: as §1
# [28] = molecular target: Neu5Ac(a2-3)Gal(b1-3)GlcNAc(b1-3)Gal(b1-3)GlcNAc
# In short: as §1
# [29] = molecular target: Neu5Ac(a2-3)Gal(b1-3)GlcNAc6S
# In short: as §1
# [30] = molecular target: Neu5Ac(a2-3)Gal(b1-3)[Fuc(a1-4)]GlcNAc
# In short: as §1
# [31] = molecular target: Neu5Ac(a2-3)Gal(b1-3)[Fuc(a1-4)]GlcNAc(b1-3)Gal(b1-4)[Fuc(a1-3)]GlcNAc
# In short: as §1
# [32] = molecular target: Neu5Ac(a2-3)Gal(b1-3)[Neu5Ac(a2-3)Gal(b1-4)]GlcNAc
# In short: as §1
# [33] = molecular target: Neu5Ac(a2-3)Gal(b1-3)[Neu5Ac(a2-6)]GalNAc
# In short: as §1
# [34] = molecular target: Neu5Ac(a2-3)Gal(b1-4)Glc
# In short: as §1
# [35] = molecular target: Neu5Ac(a2-3)Gal(b1-4)GlcNAc
# In short: as §1
# [36] = molecular target: Neu5Ac(a2-3)Gal(b1-4)GlcNAc(b1-2)Man(a1-3)[GlcNAc(b1-2)Man(b1-4)GlcNAc(b1-2)Man(a1-6)]Man(b1-4)GlcNAc(b1-4)GlcNAc
# In short: as §1
# [37] = molecular target: Neu5Ac(a2-3)Gal(b1-4)GlcNAc(b1-2)Man(a1-3)[Neu5Ac(a2-6)Gal(b1-4)GlcNAc(b1-2)Man(a1-6)]Man(b1-4)GlcNAc(b1-4)GlcNAc
# In short: as §1
# [38] = molecular target: Neu5Ac(a2-3)Gal(b1-4)GlcNAc(b1-3)Gal(b1-3)GlcNAc
# In short: as §1
# [39] = molecular target: Neu5Ac(a2-3)Gal(b1-4)GlcNAc(b1-3)Gal(b1-4)GlcNAc
# In short: as §1
# [40] = molecular target: Neu5Ac(a2-3)Gal(b1-4)GlcNAc(b1-3)Gal(b1-4)GlcNAc(b1-3)Gal(b1-4)GlcNAc
# In short: as §1
# [41] = molecular target: Neu5Ac(a2-3)Gal(b1-4)GlcNAc(b1-3)Gal(b1-4)[Fuc(a1-3)]GlcNAc
# In short: as §1
# [42] = molecular target: Neu5Ac(a2-3)Gal(b1-4)GlcNAc(b1-6)[Gal(b1-3)]GalNAc
# In short: as §1
# [43] = molecular target: Neu5Ac(a2-3)Gal(b1-4)GlcNAc(b1-6)[Neu5Ac(a2-3)Gal(b1-3)]GalNAc
# In short: as §1
# [44] = molecular target: Neu5Ac(a2-3)Gal(b1-4)GlcNAc6S
# In short: as §1
binder,measurement,setting,value
"LSECtin (Homo sapiens), Q6UXB4 (protein) MEQESALRELRERVTQGLAEAGRGREDVRTELFRALEAVRLQNNSCEPCPTSWLSFEGSCYFFSVPKTTWAAAQDHCADASAHLVIVGGLDEQGFLTRNTRGRGYWLGLRAVRHLGKVQGYQWVDGVSLSFSHWNQGEPNDAWGRENCVMMLHTGLWNDAPCDSEKDGWICEKKAQLLTPPSALEPRPLQHVVSWGLLTSLAPGADCQRVFSSSSTAAESQKHLAQHSPVQPSAWALGPPCRPHPNSTHADPT",glycan array binding signal (z-score),[1],-0.174
same,glycan array binding signal (z-score),[2],-0.053
same,glycan array binding signal (z-score),[3],-0.302
same,glycan array binding signal (z-score),[4],-0.308
same,glycan array binding signal (z-score),[5],0.057
same,glycan array binding signal (z-score),[6],0.129
same,glycan array binding signal (z-score),[7],0.15
same,glycan array binding signal (z-score),[8],0.406
same,glycan array binding signal (z-score),[9],1.22
same,glycan array binding signal (z-score),[10],-0.211
same,glycan array binding signal (z-score),[11],-0.041
same,glycan array binding signal (z-score),[12],0.579
same,glycan array binding signal (z-score),[13],-0.225
same,glycan array binding signal (z-score),[14],0.057
same,glycan array binding signal (z-score),[15],0.106
same,glycan array binding signal (z-score),[16],0.101
same,glycan array binding signal (z-score),[17],-0.271
same,glycan array binding signal (z-score),[18],1.66
same,glycan array binding signal (z-score),[19],-0.289
same,glycan array binding signal (z-score),[20],-0.085
same,glycan array binding signal (z-score),[21],-0.305
same,glycan array binding signal (z-score),[22],-0.301
same,glycan array binding signal (z-score),[23],-0.275
same,glycan array binding signal (z-score),[24],-0.296
same,glycan array binding signal (z-score),[25],-0.305
same,glycan array binding signal (z-score),[26],-0.307
same,glycan array binding signal (z-score),[27],-0.296
same,glycan array binding signal (z-score),[28],-0.264
same,glycan array binding signal (z-score),[29],-0.115
same,glycan array binding signal (z-score),[30],-0.223
same,glycan array binding signal (z-score),[31],-0.154
same,glycan array binding signal (z-score),[32],-0.301
same,glycan array binding signal (z-score),[33],-0.221
same,glycan array binding signal (z-score),[34],-0.295
same,glycan array binding signal (z-score),[35],-0.303
same,glycan array binding signal (z-score),[36],-0.296
same,glycan array binding signal (z-score),[37],-0.301
same,glycan array binding signal (z-score),[38],-0.309
same,glycan array binding signal (z-score),[39],-0.304
same,glycan array binding signal (z-score),[40],-0.304
same,glycan array binding signal (z-score),[41],-0.294
same,glycan array binding signal (z-score),[42],-0.269
same,glycan array binding signal (z-score),[43],-0.297
same,glycan array binding signal (z-score),[44],-0.3

# Reference: the supplement of paper PMC8728848
